Consider 33 sequences from publication PMC6451091.

The list shows a part of the results. Measured with an extract: partners may take part in the binding.

The assay relates to PU.1 (endogenous, THP-1 nuclear extract) + IRF8 (endogenous, THP-1 nuclear extract). Description: nuclear extract protein-binding microarray (nextPBM). The note with it: 20 mM HEPES pH 7.9, 100 mM NaCl, 1 mM DTT, 0.2 mg/mL BSA, 0.02% Triton X-100, 2% milk, 0.4 mg/mL salmon testes DNA; 1 h; temperature not stated; high values mean tight binding; double strand, one strand shown; sequences stand for … in GCCTAGCAC…GTGCTAGGTCTTGATTCGCTTGACGCTGCTG
For GGATCCGCTGGGAGGGGTGG, the binding signal was 0.889 z-score.

TTATCAGAAGCCAGTGTGGT: the binding signal came to 0.961 z-score.

On to ATTTCTGCTGCGTGAAACTA, for which the binding signal turned out to be 1.97 z-score.

For AGATTGTCTGCGTGAAAGTA, the binding signal turned out to be 0.687 z-score.

With AAAAAAAAAATCAGCTGATT, the binding signal worked out at 0.0991 z-score.

For the sequence GCCCCCTCCAGTCCCCGCCC, the binding signal is -1.82 z-score.

Consider GATATTTACCATTGTGTTAC, for which the binding signal is -0.744 z-score.

Regarding GGGAGTTTTAGAAGTTGGAG, the binding signal was -0.34 z-score.

Regarding TCCCTTTTAAATTACTCATT, the binding signal was -0.919 z-score.

As to TGAAACAGGAAGTGCAACCA, the binding signal was found to be 7.07 z-score.

On to GGAAGGCCTGCGTGAAAGCA, for which the binding signal was -0.551 z-score.

As to AAGCACAGGGCCAGCCCTAT, the binding signal is 0.333 z-score.

With TCACTCTCCTACACTTGAGG, the binding signal worked out at 0.8 z-score.

On to TCCGCCCCTTCCAGGCAAGA, for which the binding signal is -0.595 z-score.

For the sequence CAAAAGAAATTCCTCAGCCC, the binding signal was -0.539 z-score.

With TGCCTTTCATTCTGGAATCA, the binding signal is -0.801 z-score.

For CTAAGTTCAAATGTTAATTT, the binding signal is -0.858 z-score.

As for TGTATAATACAAAGCAAAAG, the binding signal is -2.07 z-score.

As to GGTTTGAACATGATGCATCA, the binding signal was -0.97 z-score.

Take ATTTATGCAACTGATCACAG: the binding signal is -1.14 z-score.

As for CCTGGTTTAATATCTGCCTG, the binding signal is -0.753 z-score.

In the case of TAGGGTTTAAACCTGATCAG, the binding signal was 0.363 z-score.

As for TGCTTGGCTCTCATTCGCCT, the binding signal was -0.658 z-score.

Consider GGGATGTATCCTTGTGGTTG, for which the binding signal was 0.366 z-score.

AAGCAGAACTTCTATTCCAC: the binding signal is -0.111 z-score.

On to GTATTCACTGCCTGAAACTC, for which the binding signal was 0.855 z-score.

For the sequence GGCCCTGGGTGGCAGGTTTG, the binding signal worked out at 0.544 z-score.

Turning to ACACTCCCACTAGTGCCATG, the binding signal is 0.486 z-score.

With CGTGTTTGCGTCCTTGCACG, the binding signal was -0.977 z-score.

On to TATAAGTTTAGGGTATTTAA, for which the binding signal is -0.174 z-score.

As to CTTCAGAATCCTCTTTTATG, the binding signal came to 0.438 z-score.

On to TCCAGATGTTCTTCACCCAT, for which the binding signal amounted to 0.393 z-score.

As to GGGGAGACTGCGTGAAAGCA, the binding signal is -0.263 z-score.
